Laboratory results as given in the supplement of paper PMC4967469.
The IC50 comes from the fitted curve, where viability falls to half of the control; a limit (>, <) means that the fit lies beyond the doses tested. For AUC the same curve is integrated over the 256-fold range of doses and scaled to a fraction: 1 means no effect, lower means more sensitive. For some of these results: The top dose, if marked as inferred, was calculated from the reported fits.

How the values were obtained:
Assay in all cases: Viability of human cancer cell lines after 72 h of drug (GDSC screen)
17-AAG = compound: C=CCNC1=C2C[C@@H](C)C[C@H](OC)[C@H](O)[C@@H](C)/C=C(\C)[C@H](OC(N)=O)[C@@H](OC)/C=C\C=C(/C)C(=O)NC(=CC1=O)C2=O [17-AAG]; details: top dose 1 µM
Procedure: (§1)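 Human cancer cell lines in 384-well plates, medium with 10% serum, drug for 72 h over a 256-fold dose range (nine 2-fold or five 4-fold steps up to the top dose). Adherent lines were fixed and stained with the nucleic acid dye Syto60, suspension lines read with resazurin; signal relative to control wells, capped at 0 and 100%. One two-parameter sigmoid per drug and line, fitted in a mixed model over all curves with the slope shared within a line.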

CCT018159 = compound: CCc1cc(-c2n[nH]c(C)c2-c2ccc3c(c2)OCCO3)c(O)cc1O [CCT018159]; details: top dose 10 µM; top dose inferred
Procedure: as §1

BIX02189 = compound: CN(C)Cc1cccc(N=C(c2ccccc2)c2c(O)[nH]c3cc(C(=O)N(C)C)ccc23)c1 [BIX02189]; details: top dose 20 µM; top dose inferred
Procedure: as §1

Dimethyloxalylglycine = compound: COC(=O)CNC(=O)C(=O)OC [Dimethyloxalylglycine]; details: top dose 4000 µM; top dose inferred
Procedure: as §1

Doxorubicin = compound: COc1cccc2c1C(=O)c1c(O)c3c(c(O)c1C2=O)C[C@@](O)(C(=O)CO)C[C@@H]3O[C@H]1C[C@H](N)[C@H](O)[C@H](C)O1 [Doxorubicin]; details: top dose 1.024 µM
Procedure: as §1

OSI-027 = compound: COc1cccc2cc(-c3nc([C@H]4CC[C@H](C(=O)O)CC4)n4ncnc(N)c34)[nH]c12 [OSI-027]; details: top dose 20 µM
Procedure: as §1

VX-11e = compound: Cc1cnc(Nc2ccc(F)cc2Cl)nc1-c1c[nH]c(C(=O)N[C@H](CO)c2cccc(Cl)c2)c1 [VX-11e]; details: top dose 5.12 µM; top dose inferred
Procedure: as §1

TG101348 = compound: Cc1cnc(Nc2ccc(OCCN3CCCC3)cc2)nc1Nc1cccc(S(=O)(=O)NC(C)(C)C)c1 [TG101348]; details: top dose 10.24 µM
Procedure: as §1

UNC1215 = compound: O=C(c1ccc(C(=O)N2CCC(N3CCCC3)CC2)c(Nc2ccccc2)c1)N1CCC(N2CCCC2)CC1 [UNC1215]; details: top dose 1 µM; top dose inferred
Procedure: as §1

Vismodegib = compound: CS(=O)(=O)c1ccc(C(=O)Nc2ccc(Cl)c(-c3ccccn3)c2)c(Cl)c1 [Vismodegib]; details: top dose 10 µM; top dose inferred
Procedure: as §1

Cell Line	AUC (17-AAG)	IC50 (17-AAG) [µM]	AUC (CCT018159)	IC50 (CCT018159) [µM]	AUC (BIX02189)	IC50 (BIX02189) [µM]	AUC (Dimethyloxalylglycine)	IC50 (Dimethyloxalylglycine) [µM]	AUC (Doxorubicin)	IC50 (Doxorubicin) [µM]	AUC (OSI-027)	IC50 (OSI-027) [µM]	AUC (VX-11e)	IC50 (VX-11e) [µM]	AUC (TG101348)	IC50 (TG101348) [µM]	AUC (UNC1215)	IC50 (UNC1215) [µM]	AUC (Vismodegib)	IC50 (Vismodegib) [µM]
A172 (glioma, adherent)	0.701	0.224	0.85	7.17	0.963	> 20	0.62	527	0.521	0.0729	0.394	0.646	0.989	> 5.12	0.859	8.02	0.987	> 1		
BCPAP (thyroid, adherent)	0.667	0.173	0.872	7.97	0.944	> 20	0.465	202	0.445	0.046	0.241	0.244	0.871	4.06	0.802	4.49	0.988	> 1		
BHY (head and neck, adherent)	0.725	0.273	0.963	> 10	0.973	> 20	0.574	399	0.388	0.0315	0.544	1.65	0.901	> 5.12	0.859	8.5	0.985	> 1		
BPH-1 (prostate, adherent)	0.651	0.172	0.853	9.11	0.933	> 20	0.539	323	0.382	0.0293	0.195	0.137	0.59	0.579	0.522	0.738	0.979	> 1		
CAL-54 (kidney, adherent)	0.922	> 1	0.901	> 10	0.952	> 20	0.676	837	0.727	0.313	0.863	> 20	0.865	> 5.12	0.849	9.42	0.983	> 1		
EFM-19 (breast, adherent)			0.957	> 10	0.884	> 20	0.663	902	0.743		0.751	9.88	0.975	> 5.12	0.803	8.63	0.974	> 1	0.97	> 10
GAMG (glioma, adherent)	0.456	0.0471	0.868	9.89	0.915	> 20	0.698	931	0.499	0.0636	0.273	0.273	0.948	> 5.12	0.834	7.12	0.983	> 1		
H-EMC-SS (chondrosarcoma, adherent)	0.954	> 1	0.882	> 10	0.78	10.9	0.689	1000	0.677	0.233	0.617	2.89	0.62	0.757	0.854	> 10.2	0.979	> 1		
HCC-827 (lung adenocarcinoma, adherent)	0.88	> 1	0.804	5.93	0.971	> 20	0.48	219	0.843	0.891	0.736	6.64	0.981	> 5.12	0.817	6.88	0.983	> 1		
HLE (liver, adherent)	0.895	> 1	0.933	> 10	0.934	> 20	0.27		0.422	0.0396	0.989	> 20	0.976	> 5.12	0.982	> 10.2	0.984	> 1		
HT-144 (melanoma, adherent)	0.492	0.0592	0.931	> 10	0.971	> 20	0.466	200	0.211	0.00801	0.979	> 20	0.948	> 5.12	0.984	> 10.2	0.982	> 1		
JAR (urogenital system, adherent)	0.943	> 1	0.868	8.78	0.961	> 20	0.881	> 4000	0.816	0.552	0.665	3.56	0.984	> 5.12	0.753	3.35	0.981	> 1		
JHH-6 (liver, adherent)			0.917	> 10	0.96	> 20	0.514	273	0.712	0.256	0.984	> 20	0.968	> 5.12	0.987	> 10.2	0.959	> 1	0.987	> 10
KYSE-70 (oesophagus, adherent)			0.946	> 10	0.968	> 20	0.624	568	0.678	0.212	0.868	> 20	0.982	> 5.12	0.92	> 10.2	0.984	> 1	0.987	> 10
LC-2-ad (lung adenocarcinoma, adherent)	0.633	0.147	0.951	> 10	0.916	> 20	0.206	33	0.212	0.00886	0.481	1.11	0.783	2.22	0.593	1.16	0.984	> 1		
MDA-MB-157 (breast, adherent)	0.614	0.13	0.925	> 10	0.984	> 20	0.614	518	0.812	0.567	0.687	4.23	0.984	> 5.12	0.885	> 10.2	0.984	> 1		
Mewo (melanoma, adherent)			0.883	> 10	0.984	> 20	0.486	228	0.939	> 1.02	0.849	19.6	0.984	> 5.12	0.972	> 10.2	0.983	> 1	0.954	> 10
NCI-H716 (large intestine, suspension)			0.91	> 10	0.79	11.5	0.79	2300	0.978	> 1.02	0.751	8.14	0.903	> 5.12	0.628	1.59	0.971	> 1	0.778	5.17
NCI-H1581 (large cell lung carcinoma, semi-adherent)			0.989	> 10	0.968	> 20	0.735	1100	0.893	> 1.02	0.298	0.357	0.972	> 5.12	0.85	6.82	0.978	> 1	0.99	> 10
NCI-H1666 (lung adenocarcinoma, semi-adherent)			0.912	> 10	0.986	> 20	0.374	108	0.858	0.976	0.802	11	0.974	> 5.12	0.867	> 10.2	0.985	> 1	0.976	> 10
NCI-H2029 (small cell lung carcinoma, adherent)			0.992	> 10	0.986	> 20	0.685	774	0.883	0.909	0.903	> 20	0.99	> 5.12	0.964	> 10.2	0.992	> 1	0.992	> 10
PA-TU-8988T (pancreas, adherent)			0.872	9.6	0.961	> 20	0.629	568	0.481	0.0569	0.653	3.34	0.955	> 5.12	0.916	> 10.2	0.985	> 1	0.987	> 10
PANC-08-13 (pancreas, adherent)			0.955	> 10	0.915	> 20	0.71	1170	0.839		0.367	0.481	0.879	> 5.12	0.873	> 10.2	0.981	> 1	0.939	> 10
SK-MEL-24 (melanoma, adherent)			0.964	> 10	0.913	> 20	0.943	> 4000	0.825	0.795	0.983	> 20	0.801	3.13	0.983	> 10.2	0.978	> 1	0.977	> 10
SW780 (bladder, adherent)			0.869	> 10	0.986	> 20	0.411	140	0.97	> 1.02	0.959	> 20	0.952	> 5.12	0.941	> 10.2	0.945	> 1	0.986	> 10
SW1990 (pancreas, adherent)			0.919	> 10	0.985	> 20	0.58	432	0.687	0.236	0.854	> 20	0.974	> 5.12	0.984	> 10.2	0.983	> 1	0.985	> 10
UM-UC-3 (bladder, adherent)			0.839	6.2	0.927	> 20	0.478	219	0.563	0.0941	0.418	0.756	0.845	3.37	0.905	> 10.2	0.987	> 1	0.988	> 10
UMC-11 (lung carcinoid, adherent)			0.958	> 10	0.969	> 20	0.439	174	0.794	0.416	0.347	0.495	0.977	> 5.12	0.825	5.27	0.99	> 1	0.991	> 10
VM-CUB-1 (bladder, adherent)	0.435	0.0419	0.825	5.72	0.987	> 20	0.442	175	0.549	0.0869	0.975	> 20	0.981	> 5.12	0.98	> 10.2				
